Source: PubChem BioAssay AID485313 (National Center for Advancing Translational Sciences (NCATS), 2010)
In all, about 320,000 compounds went through this assay and about 7,600 (2.4%) were called active. This list was built around the results that the source calls inconclusive (neither active nor inactive); the mix of calls is not that of the screen. Calls come from the whole dose curve; as a rule, active = well fitted activation curve with a large enough effect; inconclusive = small, poorly fitted or top-dose-only effect; inactive = no such curve, though single readings can be large or run the other way. Potencies of inconclusive entries are left out as doubtful fits.
Potency is the fitted concentration of half-maximal effect; tags give direction and shape of the fitted curve.

Assay: qHTS Assay for NPC1 Promoter Activators; note: nearly all actives have a fitted effect of over 60% in size;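 for activation: reporter is driven by a mutant NPC1 promoter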
Conditions: Huh7 NPC1 promoter luciferase reporter, 24 h; series mostly up to 9.22 µM
Procedure, shortened: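 Compounds in DMSO were transferred onto Huh7 NPC1-luciferase reporter cells pre-incubated 2 h; after 24 h at 37 °C, Amplite reagent was dispensed and luminescence recorded 10 min later.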
In the case of `COc1ccc(C(=O)OCC(=O)NC2CC2)cc1[N+](=O)[O-]`, the Potency is reported as “inactive”.
For `CCC(Sc1nc2ccccc2c(=O)[nH]1)C(=O)Nc1ccc(C(C)=O)cc1` (configuration not stated), the Potency was inconclusive [activator, single point].
With `CN(C)c1ccc(N/C=C/C(=O)c2ccc(F)cc2)cc1` the Potency was active: 3.16 µM.
For `Cn1c(CNC(=O)CNS(=O)(=O)c2ccc(Br)cc2)cc(=O)n(C)c1=O`, the Potency was “inactive”.
With `O=C1C(C=Nc2ccccc2O)=C(O)c2ccccc21` the Potency was inconclusive [activator, single point].
For `CN(Cc1ccccc1)C(=O)COc1ccccc1`, the Potency was inconclusive [activator, single point].
With `C=CCNc1cnn(-c2ccc(C)cc2)c(=O)c1Cl` the Potency was active: 2.82 µM.
In the case of `COc1ccc(OCCCn2cc(/C=C3/C(=N)N4C=C(C)SC4=NC3=O)c3ccccc32)cc1`, the Potency is reported as inconclusive [activator, partial curve].
For `CSCCC(=O)N1CC[C@@H](N2CCN(c3ccccc3F)CC2)[C@H](O)C1`, the Potency was “inactive”.
For `Brc1ccc(-c2cn3ccccc3n2)cc1`, the Potency was active: 0.708 µM.
With `Cc1cc(C)nc(NS(=O)(=O)c2cccs2)c1` the Potency was “inactive”.
For `Cc1ccnc(NC(=O)CCCOc2cc(=O)n(C)c3ccccc23)c1`, the Potency was inconclusive [activator, single point].
In the case of `c1ccc(CCc2nc3ccccc3[nH]2)cc1`, the Potency is reported as inconclusive [activator, single point].
In the case of `COc1ccc(N2C(=O)CC(NC3CC3)C2=O)cc1` (configuration not stated), the Potency is reported as “inactive”.
In the case of `Cc1ccc(N=Nc2ccc(N)cc2C)c(S(N)(=O)=O)c1`, the Potency is reported as inconclusive [activator, partial curve].
With `O=C(Nc1ccc([N+](=O)[O-])cc1)C(=O)Nc1cccc(C(=O)O)c1` the Potency was inconclusive [activator, partial curve, poor fit].
For `Cc1ccc(O)c(NC(=O)c2cc(-c3ccccc3)on2)c1`, the Potency was inconclusive [activator, partial curve].
For `CCc1c(C)sc2nc(C(C)C)nc(SCC(=O)N3CCc4ccccc4C3)c12`, the Potency was “inactive”.
In the case of `CC(=O)Nc1ccc(/C=C/C(=O)c2ccccc2)cc1`, the Potency is reported as active: 2.51 µM.
With `COC(=O)N/N=C/c1ccc(-c2ccc(Cl)cc2Cl)o1` the Potency was “inactive”.
In the case of `Cc1nc2ccccc2nc1OCC(=O)NCc1ccc2c(c1)OCO2`, the Potency is reported as inconclusive [activator, single point].
In the case of `Oc1ccc2ccccc2c1C=Nc1ccccc1-c1nc2ccccc2[nH]1`, the Potency is reported as inconclusive [activator, single point].
With `CC(=O)Nc1ccc(NC(=O)C(C)OC(=O)c2oc3ccccc3c2C)cc1` (configuration not stated) the Potency was “inactive”.
For `O=C(NCCc1cscn1)C1CCC(=O)N(Cc2ccc(Cl)cc2)C1` (configuration not stated), the Potency was inconclusive [activator, single point].
With `CCCN1CCC(=O)N([C@H](CSc2ccc(OC)cc2)CC(C)C)CC1` the Potency was inconclusive [activator, single point].
For `O=C(Nc1nc2cc3c(cc2s1)OCCO3)c1ccc([N+](=O)[O-])o1`, the Potency was active: 0.891 µM.
For `CCCCCCCCC/C(=N\O)c1ccccn1`, the Potency was inconclusive [activator, partial curve].
For `Cc1ccc(OCC(=O)NC2CCCC(C)C2C)c([N+](=O)[O-])n1` (configuration not stated), the Potency was “inactive”.
In the case of `O=C(Nc1ncccc1O)c1cc2ccccc2o1`, the Potency is reported as active: 3.16 µM.
In the case of `NC(=O)c1ccc(NC(=O)Nc2ccc3c(c2)OCO3)cc1`, the Potency is reported as inconclusive [activator, single point].
For `CC(C)c1nnc(NC(=O)CCC2CCCCC2)s1`, the Potency was inconclusive [activator, single point].
With `Nc1ccccc1Nc1c(F)c(F)nc(F)c1Cl` the Potency was “inactive”.
For `CC(C)(C)OC(=O)CN1C(=O)S/C(=C\c2ccc(-c3cccc(C(=O)O)c3)o2)C1=O`, the Potency was inconclusive [activator, partial curve].
For `COc1ccc(OC)c(N(C)S(=O)(=O)c2ccc3c(c2)N(C(C)=O)CCO3)c1`, the Potency was “inactive”.
For `CNC(=O)c1[nH]cnc1C(=O)Nc1ccccn1`, the Potency was “inactive”.
In the case of `Cc1ccc(C(=O)N/C(=C/C=C\c2ccccc2)C(=O)NCc2ccco2)cc1`, the Potency is reported as inconclusive [activator, single point].
For `Cc1ccccc1C(=O)Nc1ccc(Br)c(C)n1`, the Potency was inconclusive [activator, single point].
In the case of `CCOC(=O)N1CCN(C(=O)c2cccc(N3C(=O)NC4CC3(C)Oc3ccc(Cl)cc34)c2)CC1` (configuration not stated), the Potency is reported as “inactive”.
In the case of `Cc1nn2c(-c3ccc(Cl)cc3)ccnc2c1-c1ccccc1`, the Potency is reported as inconclusive [activator, single point].
In the case of `Nc1cc(-c2ccc(Cl)cc2)nn1-c1ccccc1`, the Potency is reported as active: 3.16 µM.
With `Cc1cc(/C(N)=N/OC(=O)c2ccccc2Cl)no1` the Potency was active: 1.12 µM.
With `Cc1ccccc1OCC(=O)Nc1ccc2c(c1)OCO2` the Potency was inconclusive [activator, single point].
For `S=C(NCCc1ccccc1)NCc1cccs1`, the Potency was inconclusive [activator, partial curve].
With `O=C(CSc1ccc(Cl)cc1)Nc1cccc(-c2nnc(-c3ccco3)o2)c1` the Potency was inconclusive [activator, single point].
With `COC(=O)CC(NC(=S)NC(=O)c1ccccc1)c1ccc(Br)cc1` (configuration not stated) the Potency was “inactive”.
In the case of `CN(C)C(=O)CCc1nc(-c2ccc(C(C)(C)C)cc2)no1`, the Potency is reported as active: 2.51 µM.
For `Oc1ccccc1Cc1c(O)ccc2ccccc12`, the Potency was “inactive”.
With `COc1ccc(CC(=O)Nc2nc(-c3cc(OC)ccc3OC)cs2)cc1` the Potency was “inactive”.
With `Cc1cc([N+](=O)[O-])ccc1NC(=O)c1csc(C)c1C` the Potency was active: 1.41 µM.
With `Cc1cccn2cc(CSc3ccccc3N)nc12` the Potency was active: 2.24 µM.
In the case of `CCc1ccc(OCC(=O)NNC(=O)c2cc(S(=O)(=O)N(C)C)ccc2N2CCCC2)cc1`, the Potency is reported as “inactive”.
In the case of `CCC(=O)Nc1ccc2c(c1)nc(CCN1CCN(c3ccccc3)CC1)n2C`, the Potency is reported as “inactive”.
